Reference: PubChem BioAssay (NCATS)
Inconclusive means that the source gave no clear call. Such entries were picked first, then a sample of the others. For part of these data: Potencies of inconclusive entries are left out as doubtful fits. Active and inactive are the calls of the source. Unless noted, calls follow the shape of the dose curve; as a rule, active = well fitted curve in the direction sought with a large enough effect; inconclusive = small, poorly fitted or top-dose-only effect, or another doubt; inactive = no such curve, though single readings can be large; an effect the other way counts as inactive or inconclusive.

Experiments:
[1] = system: Zika virus NS2B-NS3 protease (linked construct); experiment: Primary screen NINDS Rhodamine qHTS for Zika virus inhibitors (AID 1347160); also: % is scaled to controls: 0 for no effect and ±100 for the full control effect; nearly all actives have a fitted effect of over 55% in size
Outline: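 Single-chain NS2B-NS3 protease, 25 nM, pH 8.0; compounds preincubated 15 min. Activity: Rhodamine110 release from 1.5 microM substrate over 15 min, room temperature, data fitted to 4-parameter Hill.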

[2] = Primary qHTS for inhibitors of nuclear receptor binding SET domain protein 2 (NSD2) in an isogenic RCH-ACV NSD2 p.E1099K mutant (9B) (AID 1645876); settings: activity change, negative = viability loss: at 44.9 µM (top of the series) unless noted; also: nearly all actives have a fitted effect of over 70% in size; also: potency is read from the fitted curve at half-maximal effect; as to activity change, negative = viability loss: % is scaled to controls: 0 for no effect and ±100 for the full control effect
[3] = Primary qHTS for inhibitors of nuclear receptor binding SET domain protein 2 (NSD2) in an RCH-ACV wild type WT cells (2C) (AID 1645877); settings: activity change, negative = cell killing: at 44.9 µM (top of the series) unless noted; also: nearly all actives have a fitted effect of over 70% in size; also: potency is read from the fitted curve at half-maximal effect
[4] = Primary redox qHTS assay for identification of artifact compounds. (AID 1845223); also: potency is read from the fitted curve at half-maximal effect;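 as to redox activity (% of DA3003): 0% = DMSO and 100% = reference compound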
Outline: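 Redox-cycling detection via DTT (250 uM final) oxidation coupled to Amplex Red (25 uM)/HRP (250 mU/mL) in HBSS. 15 min preincubation plus 30 min after DTT, room temperature. Ex/Em 525/598 nm; 4-parameter Hill fit against DMSO and 10 uM DA3003.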

[5] = system: PA-1; experiment: Primary qHTS to identify gynecologic anti-cancer compounds using libraries of approved drugs and bioactive compounds (AID 1345084); settings: Gynecologic cancer cell panel viability, ATPlite luminescence, 48 h; series mostly up to 57.5 µM; also: nearly all actives have a fitted effect of over 55% in size; also: potency is read from the fitted curve at half-maximal effect; as to activity change, negative = cytotoxicity: % is scaled to controls: 0 for no effect and ±100 for the full control effect
Outline: (§1)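 Five-concentration response, 48 h; readout is ATP-driven luciferase luminescence.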

[6] = system: SKOV3; experiment: as above; settings: Gynecologic cancer cell panel viability, ATPlite luminescence, 48 h; series mostly up to 57.5 µM
Outline: as §1

[7] = qHTS to identify inhibitors of the type 1 interferon - major histocompatibility complex class I in skeletal muscle: primary screen against the NCATS Mechanism Interrogation Plate v5.0 (MIPE) Libary (AID 1347411); settings: iHSKM cells + IFN-b, HiBiT-tagged MHC-I luminescence, 24 h; activity change, negative = inhibition: at 45.8 µM (top of the series) unless noted; also: potency is read from the fitted curve at half-maximal effect; nearly all actives have a fitted effect of over 65% in size
Outline: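 Luminescence from CRISPR HiBit-tagged endogenous HLA-B in human myoblasts reported MHC class I level after 24 h of IFN-beta (4 ng/ml) plus compound. Compounds ran as 11-point 1:3 series, top 46 uM final.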

[8] = system: Tov-21-G; experiment: Primary qHTS to identify gynecologic anti-cancer compounds using libraries of approved drugs and bioactive compounds (AID 1345084); settings: Gynecologic cancer cell panel viability, ATPlite luminescence, 48 h; series mostly up to 57.5 µM; also: nearly all actives have a fitted effect of over 55% in size; also: potency is read from the fitted curve at half-maximal effect; as to activity change, negative = cytotoxicity: % is scaled to controls: 0 for no effect and ±100 for the full control effect
Outline: as §1

[9] = system: Zika virus NS2B-NS3 protease (unlinked complex); experiment: Primary screen GU Rhodamine qHTS for Zika virus inhibitors: Unlinked NS2B-NS3 protease assay (AID 1347159); settings: Recombinant ZIKV NS2B-NS3 protease, Rhodamine110 substrate fluorescence; activity change, negative = inhibition: at 107 µM (top of the series); also: % is scaled to controls: 0 for no effect and ±100 for the full control effect; nearly all actives have a fitted effect of over 60% in size
Outline: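 Unlinked NS2B/NS3, 25 nM; Rhod110 peptide, 1.5 microM; compounds, up to 114 microM. Reaction run 15 min at RT in 10 mM Tris-HCl pH 8.0, 0.01% Tween 20; kinetic fluorescence change fitted with a 4-parameter Hill model.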

[10] = biological target: Cytochrome P450 2C9 (Homo sapiens) (UniProt P11712); experiment: Cytochrome P450 family 2 subfamily C member 9 (CYP2C9) small molecule antagonists: luciferase biochemical (cell-free) qHTS assay (AID 1645842; active = well fitted curve in the direction sought with a large enough effect in the repeat runs; inconclusive = weak or mixed curves; inactive = no such curve, though single readings can be large; an effect the other way counts as inactive or inconclusive; also: % is scaled to controls: 0 for no effect and ±100 for the full control effect; nearly all actives have a fitted effect of over 55% in size)
Outline: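 P450-Glo CYP2C9 system: proluciferin substrate with enzyme in mix containing 0.4% BSA, 10 min at room temperature, then NADPH regeneration solution added and incubated 1 h at 37C. Detection reagent stopped reaction; luminescence read after 20 min as RLU.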

[11] = Primary fluorescence-based thiol-reactive (MSTI) qHTS assay for identification of artifact compounds. (AID 1845221);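 also: thiol-reactive compounds lower the probe fluorescence signal; nearly all actives have a fitted effect of over 65% in size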
Outline: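 In PBS pH 7.4 with 2% DMSO, each compound met 4 uM MSTI for one hour at ambient temperature, shielded from light, before fluorescence detection.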

[12] = biological target: Glutathione peroxidase 1 (Homo sapiens) (UniProt P07203); experiment: Primary qHTS Assay for Inhibitors of Recombinant Selenoprotein Glutathione Peroxidase 1 (GPX1) (AID 1845191); also: nearly all actives have a fitted effect of over 65% in size
Outline: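 GR-coupled readout: NADPH consumption tracked by fluorescence, ex 340/em 450 nm, at t=0 and after 15 min at RT. Final mix 10 nM GPX1, 1 mM GSH, 0.5 mM CHP, 0.5 mM NADPH, 100 nM GR, 0.01% BSA, following 30 min enzyme–compound preincubation.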
Tags tell the direction and shape of the fitted curve.

Sequence of UniProt P11712 (P11712 whole entry, looked up): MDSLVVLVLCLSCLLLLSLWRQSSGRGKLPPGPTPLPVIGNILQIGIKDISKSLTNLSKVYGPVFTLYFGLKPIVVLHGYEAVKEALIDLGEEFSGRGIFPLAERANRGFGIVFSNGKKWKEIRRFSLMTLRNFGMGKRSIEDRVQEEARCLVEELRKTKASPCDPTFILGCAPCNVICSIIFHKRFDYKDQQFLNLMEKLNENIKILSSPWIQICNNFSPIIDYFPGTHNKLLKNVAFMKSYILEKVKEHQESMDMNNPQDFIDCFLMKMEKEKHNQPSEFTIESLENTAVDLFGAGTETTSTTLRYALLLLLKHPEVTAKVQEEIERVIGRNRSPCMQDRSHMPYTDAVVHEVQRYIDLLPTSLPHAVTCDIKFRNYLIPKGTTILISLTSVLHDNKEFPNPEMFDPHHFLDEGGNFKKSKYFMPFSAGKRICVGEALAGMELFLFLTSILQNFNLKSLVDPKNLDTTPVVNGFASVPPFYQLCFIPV
Sequence of UniProt P07203 (P07203 whole entry, looked up): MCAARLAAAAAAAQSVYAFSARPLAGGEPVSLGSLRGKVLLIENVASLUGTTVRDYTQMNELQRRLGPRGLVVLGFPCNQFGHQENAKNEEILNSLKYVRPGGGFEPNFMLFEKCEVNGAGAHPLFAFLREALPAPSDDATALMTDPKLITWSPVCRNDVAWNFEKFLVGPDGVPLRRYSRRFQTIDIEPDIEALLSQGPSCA

What does the source list for C=CC(C)(O)CC/C=C(\C)C(=O)OC1C(O)C(CO)OC(OC(=O)C23CCC(C)(C)CC2C2=CCC4C5(C)CCC(OC6OC(COC7OCC(OC(C)=O)C(O)C7OC7OC(COC(C)=O)C(O)C(O)C7O)C(O)C(O)C6O)C(C)(C)C5CCC4(C)C2(C)C(O)C3O)C1OC1OCC(OC2OCC(O)C(OC3OCC(O)C(O)C3O)C2O)C(O)C1O (stereo not given)?
activity change, negative = inhibition [1]: inactive: 18.5% [at 10.7 µM]; Potency [2]: inconclusive [inhibitor, single point]; Potency [3]: inconclusive [inhibitor, single point]; redox activity (% of DA3003) [4]: inactive: -2.76% [at 6.41 µM]; activity change, negative = cytotoxicity [5]: inactive: -0.479% [at 6.55 µM]

For CC(CC12CCCN1C(=O)C1CCCN1C2=O)OC(N)=O (stereo not given), which Potency [6] is on record?
The Potency was “inactive”.

Which Potency [6] does the source give for C/C=C(/C)C(=O)OC1C2OC2C2(CO2)C2C3OC(=O)C(C)C3CCC12C (stereo not given) here?
Its Potency is inconclusive [cytotoxic, single point].

For Clc1cc2c(NC3CCCC3)nnc(-c3ccncc3)c2cc1Cl, which Potency [7] is on record?
The Potency was inconclusive [inhibitor, partial curve, poor fit].

And the Potency [6]?
The Potency was inconclusive [cytotoxic, single point].

And the Potency [8]?
The Potency was “inactive”.

Which Potency [9] does the source give for O=S(=O)(NC1CCNCC1)c1cc(S(=O)(=O)c2ccccc2)ccc1C(F)(F)F here?
Its Potency is “inactive”.

And the Potency [10]?
The Potency was “inactive”.

What about the Potency [6] of the same compound?
Its Potency is inconclusive [rising, single point].

And the Potency [8]?
The Potency was “inactive”.

With CC(=O)O[C@@H]1[C@H](O[C@@H]2OC[C@](O)(CO)[C@H]2O)[C@@H](O[C@@H]2O[C@@H](C)[C@H](O)[C@@H](O[C@@H]3O[C@H](CO)[C@@H](O)[C@H](O)[C@H]3O)[C@H]2O)[C@H](OC(=O)[C@]23CCC(C)(C)C[C@H]2C2=CCC4[C@@]5(C)C[C@H](O)[C@H](O[C@@H]6O[C@H](C(=O)O)[C@@H](O)[C@H](O)[C@H]6O)[C@@](C)(C(=O)O)C5CC[C@@]4(C)[C@]2(C)CC3)O[C@@H]1C (stereo not given in full) as the compound, how does the activity change, negative = thiol reactive [11] read?
The activity change, negative = thiol reactive was inactive: 238% [at 11.5 µM].

What about the Potency [4] of the same compound?
Its Potency is inconclusive [activator, partial curve, poor fit].

And the activity change, negative = cytotoxicity [5]?
Its activity change, negative = cytotoxicity is inactive: 3.28% [at 6.55 µM].

Which results are given for C=C1CCC2C(C(C)(C)O)CCC2(C)CC(O)C(=C)CCC1O (stereo not given)?
Potency [2]: inconclusive [inhibitor, single point]; Potency [5]: inactive

With C#CCCCn1cc(-c2cccc3c2N[C@@H](C)CC(=O)N3)cn1 as the compound, how does the Potency [6] read?
Its Potency is inconclusive [rising, single point].

For Cc1nc2cc(-c3cc(F)cc(C#N)c3)ccc2s1, which Potency [2] is on record?
The Potency was “inactive”.

What about the Potency [3] of the same compound?
The Potency was “inactive”.

What about the Potency [5] of the same compound?
Its Potency is “inactive”.

With CN([C@H]1c2cc(OCCCC(F)(F)F)ccc2OC(C)(C)[C@@H]1O)S(C)(=O)=O as the compound, how does the Potency [6] read?
The Potency was inconclusive [rising, full curve, poor fit].

For O=C1NC2CCc3nc4ccccc4c(=O)n3C2=Nc2ccccc21 (stereo not given), which Potency [2] is on record?
Its Potency is “inactive”.

What about the Potency [3] of the same compound?
Its Potency is “inactive”.

And the Potency [12]?
Its Potency is “inactive”.

And the Potency [5]?
Its Potency is inconclusive [rising, full curve, poor fit].

For COc1cc(C(=O)OC[C@H]2O[C@@H](OC(C)(C)C(=O)O)[C@H](O)[C@@H](O)[C@@H]2O)cc(OC)c1O, which Potency [6] is on record?
Its Potency is inconclusive [rising, single point].

Which Potency [6] does the source give for C=CC(C)(C)O[C@@H]1O[C@H](CO[C@@H]2OC[C@](O)(CO)[C@H]2O)[C@@H](O)[C@H](O)[C@H]1O here?
The Potency was inconclusive [rising, single point].
